# Experimental data: US20110251230A1, “THERAPEUTICS FOR NEUROLOGICAL DISORDERS” (UNIVERSITY OF SHEFFIELD, priority 2008, published 2011)
# Counter-ions that a name gives are not always drawn. At least one read-out could not be matched to a standard name with certainty.
# Key:
# C6 (rat) astrocytic line = assay: C6 oxidative stress assay (serum withdrawal, DCF); settings: C6, DCF fluorescence
# [1] = tested on: NSC34 mouse motor neuronal cells; assay: NSC34 oxidative stress assay (serum withdrawal, DCF); settings: NSC34, DCF fluorescence; negative = pro-oxidant
# [2] = tested on: 1321N1 (human) astrocytic line; assay: 1321N1 oxidative stress assay (serum withdrawal, DCF); settings: 1321N1, DCF fluorescence
SMILES,Maximal % reduction in Oxidative stress (C6 (rat) astrocytic line) [%],Maximal % reduction in Oxidative stress [1] [%],Maximal % reduction in Oxidative stress [2] [%]
"CN1CCc2cccc3c2[C@H]1Cc1ccc(O)c(O)c1-3 [Apomorphine hydrochloride, reference compound]",62,25,79
C=C(C)/C=C1/C=CC(=O)C(C)=C1 [Retusoquinone],15,−25,0
S=C=NCc1ccccc1 [Benzyl Isothiocyanate],27,−28,8
CC1=CC(=O)C(C(C)C)=CC1=O [Thymoquinone],32,0,25
"O=c1c2ccccc2[se]n1-c1ccccc1 [Ebselen, reference compound]",30,−80,20
Cc1cc(O)c(C)c(O)c1C(=O)O [3 methylorsellinic acid],56,−12,53
OC[C@H]1O[C@@H](n2cnc3c(NCc4ccco4)ncnc32)[C@H](O)[C@@H]1O [kinetin riboside],40,0,25
CC(=O)Oc1ccc(O)cc1 [4 acetoxyphenol],0,−70,42
"COc1cc(O)c(C)c(O)c1 [2,6-dihydroxy-4-methoxytoluene]",16,28,40
"CC(=O)OC1CC[C@@]2(C)C(CC[C@H]3[C@@H]4CC=C(C(C)=O)[C@@]4(C)C(=O)C[C@@H]32)C1 (some centres unmarked) [3 acetoxypregn-16-en-12,20-dione]",50,0,75
C=CC(C1=CC(=O)C=CC1=O)c1ccccc1 (centres unmarked) [Dalbergione],40,0,38
CCCCCc1c2c(cc(O)c1C(=O)O)OC(=O)c1c(cc(OC)cc1C(=O)CCCC)O2 [Lobaric acid],9,−26,0
COc1cccc(O)c1O [3 methoxycatechol],46,−13,39
CCc1cccc(CC)c1N(COC)C(=O)CCl [Alachlor],62,0,83
"O=C(CCBr)N1CCN(C(=O)CCBr)CC1 [Pipobroman, reference compound]",71,30,19
"C=C(CC)C(=O)c1ccc(OCC(=O)O)c(Cl)c1Cl [Ethacrynic acid, reference compound]",31,−30,25
CC1(C)C2CC(=O)O[C@@]3(C)C4=CC(=O)O[C@@H](c5ccoc5)[C@]4(C)CCC3[C@@]2(C)C=C[C@H]1O (some centres unmarked) [Deoxyandirobin lactone],38,0,65
COc1cc(O)cc(OC)c1OC [Antiarol],23,−50,35
"CC(COc1ccccc1)NC(C)C(O)c1ccc(O)cc1 (centres unmarked) [Isoxsuprine hydrochloride, reference compound]",40,−16,
C=C1CC[C@@H]2[C@](C)(CO)[C@H](O)CC[C@@]2(C)[C@@H]1C/C=C1/C(=O)OC[C@H]1O [Andrographolide],69,0,35
